Laboratory results from patent US20120178908A1 (Novo Nordisk, published 2012).
Like-named read-outs stand apart in the source and are kept apart here.

How the values were obtained:
Assay in all cases: cell-based or functional assay
[1] = target: T1, TLT-1 receptor on the surface of activated human platelets (human, UniProt Q86YW5 16-311)
T1 sequence: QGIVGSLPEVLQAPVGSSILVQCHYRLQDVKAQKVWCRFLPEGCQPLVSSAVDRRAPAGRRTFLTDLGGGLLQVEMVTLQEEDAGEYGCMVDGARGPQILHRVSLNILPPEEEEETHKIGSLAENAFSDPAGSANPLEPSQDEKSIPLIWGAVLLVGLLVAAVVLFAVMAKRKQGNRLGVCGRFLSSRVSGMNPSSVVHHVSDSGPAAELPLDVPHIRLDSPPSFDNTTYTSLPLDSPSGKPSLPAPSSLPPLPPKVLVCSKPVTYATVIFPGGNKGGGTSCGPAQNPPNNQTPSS

[2] = target: T2, TLT-1 18-188 relipidated in 20:80 PS:PC vesicles (human, UniProt Q86YW5 18-188)
T2 sequence: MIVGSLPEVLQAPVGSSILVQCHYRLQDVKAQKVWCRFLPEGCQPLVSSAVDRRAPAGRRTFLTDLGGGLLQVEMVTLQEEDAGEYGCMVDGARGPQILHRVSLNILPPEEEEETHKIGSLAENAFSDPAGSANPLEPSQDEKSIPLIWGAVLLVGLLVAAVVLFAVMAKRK

[3] = target: T1, TLT-1 receptor on the surface of …; remark: listed apart in the source
[4] = target: T2, TLT-1 18-188 relipidated in 20:80 PS:PC …; remark: listed apart in the source

| Binder | FVII-mediated FXa generation % Activity activated plts (n 1) [1] [%] | FVIIa-mediated FXa generation % Activity activated plts (n 1) [1] [%] | FVII-mediated FXa generation % Activity lipidated TLT-1 [2] [%] | FVIIa-mediated FXa generation % Activity lipidated TLT-1 [2] [%] | FVII-mediated FXa generation % Activity activated plts (n 2) [3] [%] | FVIIa-mediated FXa generation % Activity activated plts (n 2) [3] [%] | FVII-mediated FXa generation % Activity lipidated TLT-1 [4] [%] | FVIIa-mediated FXa generation % Activity lipidated TLT-1 [4] [%] |
| --- | --- | --- | --- | --- | --- | --- | --- | --- |
| heterodimer#3 LC/HC-his/Fc-sTF (other) light chain: DVVMTQTPLSLPVSLGDQASISCRSSQSLVHRNGNTYFHWALQKPGQSPKLLIYKVSNRFSGVPDRFSGSGSGTDFTLKISRVEAEDLGVYFCSQSTHVPYTFGGGTKLEIKRTVAAPSVFIFPPSDEQLKSGTASVVCLLNNFYPREAKVQWKVDNALQSGNSQESVTEQDSKDSTYSLSSTLTLSKADYEKHKVYACEVTHQGLSSPVTKSFNRGEC heavy chain-His6: EVKLLESGGGLVQPGGSLKLSCAASGFDFSRYWMTWVRQAPGKGLEWIGEINPDSSTINYNPSLKDKFIISRDNAKNTLYLQMSEVRSEDTALYYCASGVFTSWGQGTLVTVSAASTKGPSVFPLAPCSRSTSESTAALGCLVKDYFPEPVTVSWNSGALTSGVHTFPAVLQSSGLYSLSSVVTVPSSSLGTKTYTCNVDHKPSNTKVDKRV[human IgG4 Fc with S228P (EU numbers) and a few adjoining residues omitted] hinge-CH2-CH3-linker-TF: [human IgG4 Fc with S228P (EU numbers) omitted]GSGGGGSGGGGSGGGGSSGTTNTVAAYNLTWKSTNFKTILEWEPKPVNQVYTVQISTKSGDWKSKCFYTTDTECDLTDEIVKDVKQTYLARVFSYPAGNVESTGSAGEPLYENSPEFTPYLETNLGQPTIQSFEQVGTKVNVTVEDERTLVRRNNTFLSLRDVFGKDLIYTLYYWKSSSSGKKTAKTNTNEFLIDVDKGENYCFSVQAVIPSRTVNRKSTDSPVECMGQEKGEFRE | 38 | 28 | 36 | 54 | – | – | – | – |
| heterodimer#5 LC-sTF/HC/Fc-his (other) light chain-linker-TF: DVVMTQTPLSLPVSLGDQASISCRSSQSLVHRNGNTYFHWALQKPGQSPKLLIYKVSNRFSGVPDRFSGSGSGTDFTLKISRVEAEDLGVYFCSQSTHVPYTFGGGTKLEIKRTVAAPSVFIFPPSDEQLKSGTASVVCLLNNFYPREAKVQWKVDNALQSGNSQESVTEQDSKDSTYSLSSTLTLSKADYEKHKVYACEVTHQGLSSPVTKSFNRGECGSGGGGSGGGGSGGGGSSGTTNTVAAYNLTWKSTNFKTILEWEPKPVNQVYTVQISTKSGDWKSKCFYTTDTECDLTDEIVKDVKQTYLARVFSYPAGNVESTGSAGEPLYENSPEFTPYLETNLGQPTIQSFEQVGTKVNVTVEDERTLVRRNNTFLSLRDVFGKDLIYTLYYWKSSSSGKKTAKTNTNEFLIDVDKGENYCFSVQAVIPSRTVNRKSTDSPVECMGQEKGEFRE heavy chain: EVKLLESGGGLVQPGGSLKLSCAASGFDFSRYWMTWVRQAPGKGLEWIGEINPDSSTINYNPSLKDKFIISRDNAKNTLYLQMSEVRSEDTALYYCASGVFTSWGQGTLVTVSAASTKGPSVFPLAPCSRSTSESTAALGCLVKDYFPEPVTVSWNSGALTSGVHTFPAVLQSSGLYSLSSVVTVPSSSLGTKTYTCNVDHKPSNTKVDKRV[human IgG4 Fc with S228P (EU numbers) omitted] hinge-CH2-CH3-His6: [human IgG4 Fc with S228P (EU numbers) and a few adjoining residues omitted] | 31 | 30 | 48 | 74 | – | – | – | – |
| mAb 0012-(LC-L9-TF)2;HC2 (other) light chain-linker-TF: DVVMTQTPLSLPVSLGDQASISCRSSQSLVHRNGNTYFHWCLQKPGQSPKLLIYKVSNRFSGVPDRFSGSGSGTDFTLKISRVEAEDLGVYFCSQSTHVPYTFGGGTKLEIKRTVAAPSVFIFPPSDEQLKSGTASVVCLLNNFYPREAKVQWKVDNALQSGNSQESVTEQDSKDSTYSLSSTLTLSKADYEKHKVYACEVTHQGLSSPVTKSFNRGECGGGGSGGGGSGGGGSGGGGSGGGGSGSGGGGSGGGGSGGGGSSGTTNTVAAYNLTWKSTNFKTILEWEPKPVNQVYTVQISTKSGDWKSKCFYTTDTECDLTDEIVKDVKQTYLARVFSYPAGNVESTGSAGEPLYENSPEFTPYLETNLGQPTIQSFEQVGTKVNVTVEDERTLVRRNNTFLSLRDVFGKDLIYTLYYWKSSSSGKKTAKTNTNEFLIDVDKGENYCFSVQAVIPSRTVNRKSTDSPVECMGQEKGEFRE heavy chain: EVKLLESGGGLVQPGGSLKLSCAASGFDFSRYWMTWVRQAPGKGLEWIGEINPDSSTINYTPSLKDKFIISRDNAKNTLYLQMSEVRSEDTALYYCASGVFTSWGQGTLVTVSAASTKGPSVFPLAPCSRSTSESTAALGCLVKDYFPEPVTVSWNSGALTSGVHTFPAVLQSSGLYSLSSVVTVPSSSLGTKTYTCNVDHKPSNTKVDKRV[human IgG4 Fc with S228P (EU numbers) omitted] | – | – | – | – | 44 | 24 | 64 | 84 |
